# Assay results published in the GPR68 mutational scans of Howard et al. (2025).
# B1: GPR68, Q15743 (parent)
# chain: MGNITADNSSMSCTIDHTIHQTLAPVVYVTVLVVGFPANCLSLYFGYLQIKARNELGVYLCNLTVADLFYICSLPFWLQYVLQHDNWSHGDLSCQVCGILLYENIYISVGFLCCISVDRYLAVAHPFRFHQFRTLKAAVGVSVVIWAKELLTSIYFLMHEEVIEDENQHRVCFEHYPIQAWQRAINYYRFLVGFLFPICLLLASYQGILRAVRRSHGTQKSRKDQIQRLVLSTVVIFLACFLPYHVLLLVRSVWEASCDFAKGVFNAYHFSLLLTSFNCVADPVLYCFVSETTHRDLARLRGACLAFLTCSRTGRAREAYPLGAPEASGKSGAQGEEPELLTKLHPAFQTPNSPGSGGFPTGRLA
# Assays:
# [1] = variants of: B1; assay: cAMP reporter score (Enrich2 score, wild type = 0); higher = more signal; HEK293T, FACS bins
# [2] = variants of: B1; assay: surface expression score (Enrich2 score, wild type = 0); higher = more signal; HEK293T, FACS bins
Variant,cAMP reporter score ([1]; pH 5.5),cAMP reporter score ([1]; pH 6),"cAMP reporter score ([1]; pH 6, modulator: ogerin)","cAMP reporter score ([1]; pH 6.5, modulator: ogerin)",surface expression score [2]
L48P,-0.853,0.453,-1.32,-0.424,-2.31
L48Q,0.352,-0.061,0.4,-0.285,-0.861
L48R,2.52,-0.375,-0.181,–,-0.407
L48S,0.118,-1.5,-0.337,-1.26,-1.71
L48T,0.213,-0.056,0.616,-0.578,-1.62
L48V,-1.01,–,-0.744,-1.43,-1.17
L48W,-0.282,-1.32,-0.992,-0.304,-0.466
L48Y,-1.35,-1.26,-1.41,-1.23,-2.13
L48_I50del,-1.1,-0.483,-1.06,-2.33,-1.81
L48_Q49del,-1.73,-0.838,-1.62,–,-1.64
L48del,-2.37,-1.41,-1.93,-1.67,-2.91
Q49_I50del,-2.01,-0.173,-1.79,-1.13,-1.77
Q49_I50insGS,-1.26,-0.949,-0.548,-1.31,-2.51
Q49_K51del,-1.78,-1.39,-1.8,-1.25,-2.62
I50A,0.742,-0.055,-0.356,-0.319,-2.08
I50C,0.057,-0.929,-0.638,-0.888,-1.46

Variant,cAMP reporter score ([1]; pH 5.5),cAMP reporter score ([1]; pH 6),"cAMP reporter score ([1]; pH 6, modulator: ogerin)","cAMP reporter score ([1]; pH 6.5, modulator: ogerin)",surface expression score [2]
I50D,-0.233,–,–,-0.896,–
I50E,-0.661,0.165,-0.615,–,–
I50F,-1.15,-1.4,-1.22,-1.64,-2.93
I50G,-1.74,-0.775,–,-1.67,-2.27
I50H,-1.5,-0.724,-1.64,-0.723,-2.36
I50K,-1.33,-0.596,-1.87,-0.733,-2.71
I50L,-0.451,-0.583,0.168,-0.687,-0.777
I50M,0.009,-0.498,-0.22,-0.788,-0.753
I50N,-1.16,-1.43,-1.72,-0.691,-2.19
I50P,-2.47,-1.9,-2.02,-1.2,-2.89
I50Q,-1.03,–,-0.946,-0.685,-2.23
I50R,-0.909,-1.04,-1.62,1.22,-2.37
I50S,-1.48,-0.375,-1.48,-1.26,-2.23
I50T,-0.687,-0.182,-0.811,-0.864,-0.795
I50V,0.477,0.004,0.136,-0.406,-0.235
I50W,0.343,0.548,-0.071,-0.63,-1.9

# The least precise scores are not listed. Two further conditions of the source, in which the scores hardly spread, are not listed. In variant names, del marks residues removed and ins residues inserted between the two positions. For part of these data: The data file names ogerin without a concentration.
